Test results published in the supplement of paper PMC12230231.
± gives the standard deviation of the averaged measurements. Restriction of a single-cycle SIVsab GFP reporter by TRIM5α v1-loop variants in CRFK cells. Human variants: read share among cells still uninfected after two challenges over input, higher = gained restriction. Rhesus variants: share among infected cells over input, higher = lost restriction. Reporter dose not given per row. No active / inactive call per row; the paper calls a change when both replicates lie above its controls (mean + 2 SD of stop or wild-type variants, or the top frameshift score). Residues outside the varied loop are taken from Swiss-Prot. The paper reads the human single-substitution scores as noise; they and the rhesus combinations repeat poorly (rank correlation 0.3 to 0.4), indel scores repeat only for the top variants, rhesus substitutions well (0.9).

System: SIVsab (simian immunodeficiency virus of sabaeus monkeys), single-cycle GFP reporter, in CRFK cells
Assay: enrichment among uninfected cells over input (fold); higher = stronger restriction
Conditions: library: human / rhesus combinations
Method: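 Pools of CRFK cells expressing variants of the TRIM5α v1 loop were challenged with the single-cycle reporter, sorted by GFP and sequenced; mean of two replicates.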

Q: “MASGILVNVKEEVTCPICLELLTQPLSLDCGHSFCQACLTANHKKSMLDKGESSCPVCRISYQPENIRPNRHVANIVEKLREVKLSPEGQKVDHCARHGEKLLLFCQEDGKVICWLCERSQEHRGHHTFLTEEVAREYQVKLQAALEMLRQKQQEAEELEADIREEKASWKTQIQYDKTNVLADFEQLRDILDWEESNELQNLEKEEEDILKSLTNSETEMVQQTQSLRELISDLEHRLQGSVMELLQGVDGVIKRTENVTLKKPETFPKNQRRVFRAPDLKGMLEVFRELTDVRRYWVDVTVAPNNISCAVISEDKRQVSSPKPQIIYGARGTLFTFQTLVNFNYCTGILGSQSITSGKHYWEVDVSKKTAWILGVCAGFQPDAMCNIEKNENYQPKYGYWVIGLEEGVKCSAFQDSSFHTPSVPFIVPLSVIICPDRVGVFLDYEACTVSFFNITNHGFLIYKFSHCSFSQPVFPYLNPRKCGVPMTLCSPSS [human TRIM5α, 330-340 = GARGTLFTFQTLV]” was tested. Which enrichment did it give?
A: 0.0929 ± 0.043

Q: For “MASGILVNVKEEVTCPICLELLTQPLSLDCGHSFCQACLTANHKKSMLDKGESSCPVCRISYQPENIRPNRHVANIVEKLREVKLSPEGQKVDHCARHGEKLLLFCQEDGKVICWLCERSQEHRGHHTFLTEEVAREYQVKLQAALEMLRQKQQEAEELEADIREEKASWKTQIQYDKTNVLADFEQLRDILDWEESNELQNLEKEEEDILKSLTNSETEMVQQTQSLRELISDLEHRLQGSVMELLQGVDGVIKRTENVTLKKPETFPKNQRRVFRAPDLKGMLEVFRELTDVRRYWVDVTVAPNNISCAVISEDKRQVSSPKPQIIYQARGTRYTFPTLTNFNYCTGILGSQSITSGKHYWEVDVSKKTAWILGVCAGFQPDAMCNIEKNENYQPKYGYWVIGLEEGVKCSAFQDSSFHTPSVPFIVPLSVIICPDRVGVFLDYEACTVSFFNITNHGFLIYKFSHCSFSQPVFPYLNPRKCGVPMTLCSPSS [human TRIM5α, 330-340 = QARGTRYTFPTLT]”, which enrichment is on record?
A: 0.387 ± 0.36

Q: “MASGILVNVKEEVTCPICLELLTQPLSLDCGHSFCQACLTANHKKSMLDKGESSCPVCRISYQPENIRPNRHVANIVEKLREVKLSPEGQKVDHCARHGEKLLLFCQEDGKVICWLCERSQEHRGHHTFLTEEVAREYQVKLQAALEMLRQKQQEAEELEADIREEKASWKTQIQYDKTNVLADFEQLRDILDWEESNELQNLEKEEEDILKSLTNSETEMVQQTQSLRELISDLEHRLQGSVMELLQGVDGVIKRTENVTLKKPETFPKNQRRVFRAPDLKGMLEVFRELTDVRRYWVDVTVAPNNISCAVISEDKRQVSSPKPQIIYQAPGTRFTFQTFTNFNYCTGILGSQSITSGKHYWEVDVSKKTAWILGVCAGFQPDAMCNIEKNENYQPKYGYWVIGLEEGVKCSAFQDSSFHTPSVPFIVPLSVIICPDRVGVFLDYEACTVSFFNITNHGFLIYKFSHCSFSQPVFPYLNPRKCGVPMTLCSPSS [human TRIM5α, 330-340 = QAPGTRFTFQTFT]” was tested. Which enrichment did it give?
A: 1.28 ± 0.084

Q: For “MASGILVNVKEEVTCPICLELLTQPLSLDCGHSFCQACLTANHKKSMLDKGESSCPVCRISYQPENIRPNRHVANIVEKLREVKLSPEGQKVDHCARHGEKLLLFCQEDGKVICWLCERSQEHRGHHTFLTEEVAREYQVKLQAALEMLRQKQQEAEELEADIREEKASWKTQIQYDKTNVLADFEQLRDILDWEESNELQNLEKEEEDILKSLTNSETEMVQQTQSLRELISDLEHRLQGSVMELLQGVDGVIKRTENVTLKKPETFPKNQRRVFRAPDLKGMLEVFRELTDVRRYWVDVTVAPNNISCAVISEDKRQVSSPKPQIIYQARGTLYTFQSLTNFNYCTGILGSQSITSGKHYWEVDVSKKTAWILGVCAGFQPDAMCNIEKNENYQPKYGYWVIGLEEGVKCSAFQDSSFHTPSVPFIVPLSVIICPDRVGVFLDYEACTVSFFNITNHGFLIYKFSHCSFSQPVFPYLNPRKCGVPMTLCSPSS [human TRIM5α, 330-340 = QARGTLYTFQSLT]”, which enrichment is on record?
A: 0.224 ± 0.06

Q: How did the enrichment turn out when “MASGILVNVKEEVTCPICLELLTQPLSLDCGHSFCQACLTANHKKSMLDKGESSCPVCRISYQPENIRPNRHVANIVEKLREVKLSPEGQKVDHCARHGEKLLLFCQEDGKVICWLCERSQEHRGHHTFLTEEVAREYQVKLQAALEMLRQKQQEAEELEADIREEKASWKTQIQYDKTNVLADFEQLRDILDWEESNELQNLEKEEEDILKSLTNSETEMVQQTQSLRELISDLEHRLQGSVMELLQGVDGVIKRTENVTLKKPETFPKNQRRVFRAPDLKGMLEVFRELTDVRRYWVDVTVAPNNISCAVISEDKRQVSSPKPQIIYQAPGTRYTFQSLVNFNYCTGILGSQSITSGKHYWEVDVSKKTAWILGVCAGFQPDAMCNIEKNENYQPKYGYWVIGLEEGVKCSAFQDSSFHTPSVPFIVPLSVIICPDRVGVFLDYEACTVSFFNITNHGFLIYKFSHCSFSQPVFPYLNPRKCGVPMTLCSPSS [human TRIM5α, 330-340 = QAPGTRYTFQSLV]” was run?
A: 0.318 ± 0.08

Q: For “MASGILVNVKEEVTCPICLELLTQPLSLDCGHSFCQACLTANHKKSMLDKGESSCPVCRISYQPENIRPNRHVANIVEKLREVKLSPEGQKVDHCARHGEKLLLFCQEDGKVICWLCERSQEHRGHHTFLTEEVAREYQVKLQAALEMLRQKQQEAEELEADIREEKASWKTQIQYDKTNVLADFEQLRDILDWEESNELQNLEKEEEDILKSLTNSETEMVQQTQSLRELISDLEHRLQGSVMELLQGVDGVIKRTENVTLKKPETFPKNQRRVFRAPDLKGMLEVFRELTDVRRYWVDVTVAPNNISCAVISEDKRQVSSPKPQIIYGAPGTLFTFPTLTNFNYCTGILGSQSITSGKHYWEVDVSKKTAWILGVCAGFQPDAMCNIEKNENYQPKYGYWVIGLEEGVKCSAFQDSSFHTPSVPFIVPLSVIICPDRVGVFLDYEACTVSFFNITNHGFLIYKFSHCSFSQPVFPYLNPRKCGVPMTLCSPSS [human TRIM5α, 330-340 = GAPGTLFTFPTLT]”, which enrichment is on record?
A: 2.17 ± 0.93

Q: “MASGILVNVKEEVTCPICLELLTQPLSLDCGHSFCQACLTANHKKSMLDKGESSCPVCRISYQPENIRPNRHVANIVEKLREVKLSPEGQKVDHCARHGEKLLLFCQEDGKVICWLCERSQEHRGHHTFLTEEVAREYQVKLQAALEMLRQKQQEAEELEADIREEKASWKTQIQYDKTNVLADFEQLRDILDWEESNELQNLEKEEEDILKSLTNSETEMVQQTQSLRELISDLEHRLQGSVMELLQGVDGVIKRTENVTLKKPETFPKNQRRVFRAPDLKGMLEVFRELTDVRRYWVDVTVAPNNISCAVISEDKRQVSSPKPQIIYGAPGTRYTFPSFVNFNYCTGILGSQSITSGKHYWEVDVSKKTAWILGVCAGFQPDAMCNIEKNENYQPKYGYWVIGLEEGVKCSAFQDSSFHTPSVPFIVPLSVIICPDRVGVFLDYEACTVSFFNITNHGFLIYKFSHCSFSQPVFPYLNPRKCGVPMTLCSPSS [human TRIM5α, 330-340 = GAPGTRYTFPSFV]” was tested. Which enrichment did it give?
A: 0.161 ± 0.059

Same assay, conditions: library: insertions and deletions

Q: With “MASGILVNVKEEVTCPICLELLTQPLSLDCGHSFCQACLTANHKKSMLDKGESSCPVCRISYQPENIRPNRHVANIVEKLREVKLSPEGQKVDHCARHGEKLLLFCQEDGKVICWLCERSQEHRGHHTFLTEEVAREYQVKLQAALEMLRQKQQEAEELEADIREEKASWKTQIQYDKTNVLADFEQLRDILDWEESNELQNLEKEEEDILKSLTNSETEMVQQTQSLRELISDLEHRLQGSVMELLQGVDGVIKRTENVTLKKPETFPKNQRRVFRAPDLKGMLEVFRELTDVRRYWVDVTVAPNNISCAVISEDKRQVSSPKPQIIYTRYQTFVNFNYCTGILGSQSITSGKHYWEVDVSKKTAWILGVCAGFQPDAMCNIEKNENYQPKYGYWVIGLEEGVKCSAFQDSSFHTPSVPFIVPLSVIICPDRVGVFLDYEACTVSFFNITNHGFLIYKFSHCSFSQPVFPYLNPRKCGVPMTLCSPSS [human TRIM5α, 4-codon deletion at 330]” as the sequence, how does the enrichment read?
A: 0.584 ± 0.052

Q: With “MASGILVNVKEEVTCPICLELLTQPLSLDCGHSFCQACLTANHKKSMLDKGESSCPVCRISYQPENIRPNRHVANIVEKLREVKLSPEGQKVDHCARHGEKLLLFCQEDGKVICWLCERSQEHRGHHTFLTEEVAREYQVKLQAALEMLRQKQQEAEELEADIREEKASWKTQIQYDKTNVLADFEQLRDILDWEESNELQNLEKEEEDILKSLTNSETEMVQQTQSLRELISDLEHRLQGSVMELLQGVDGVIKRTENVTLKKPETFPKNQRRVFRAPDLKGMLEVFRELTDVRRYWVDVTVAPNNISCAVISEDKRQVSSPKPQIIYGARGTRYQTFVGSQSITSGKHYWEVDVSKKTAWILGVCAGFQPDAMCNIEKNENYQPKYGYWVIGLEEGVKCSAFQDSSFHTPSVPFIVPLSVIICPDRVGVFLDYEACTVSFFNITNHGFLIYKFSHCSFSQPVFPYLNPRKCGVPMTLCSPSS [human TRIM5α, 9-codon deletion at 341]” as the sequence, how does the enrichment read?
A: 1.83 ± 0.42

Q: How did the enrichment turn out when “MASGILVNVKEEVTCPICLELLTQPLSLDCGHSFCQACLTANHKKSMLDKGESSCPVCRISYQPENIRPNRHVANIVEKLREVKLSPEGQKVDHCARHGEKLLLFCQEDGKVICWLCERSQEHRGHHTFLTEEVAREYQVKLQAALEMLRQKQQEAEELEADIREEKASWKTQIQYDKTNVLADFEQLRDILDWEESNELQNLEKEEEDILKSLTNSETEMVQQTQSLRELISDLEHRLQGSVMELLQGVDGVIKRTENVTLKKPETFPKNQRRVFRAPDLKGMLEVFRELTDVRRYWVDVTVAPNNISCAVISEDKRQVSSPKPQIIQIIYGARGTRYQTFVNFNYCTGILGSQSITSGKHYWEVDVSKKTAWILGVCAGFQPDAMCNIEKNENYQPKYGYWVIGLEEGVKCSAFQDSSFHTPSVPFIVPLSVIICPDRVGVFLDYEACTVSFFNITNHGFLIYKFSHCSFSQPVFPYLNPRKCGVPMTLCSPSS [human TRIM5α, 3-codon duplication at 326]” was run?
A: 0.3609 ± 0.0029

Q: With “MASGILVNVKEEVTCPICLELLTQPLSLDCGHSFCQACLTANHKKSMLDKGESSCPVCRISYQPENIRPNRHVANIVEKLREVKLSPEGQKVDHCARHGEKLLLFCQEDGKVICWLCERSQEHRGHHTFLTEEVAREYQVKLQAALEMLRQKQQEAEELEADIREEKASWKTQIQYDKTNVLADFEQLRDILDWEESNELQNLEKEEEDILKSLTNSETEMVQQTQSLRELISDLEHRLQGSVMELLQGVDGVIKRTENVTLKKPETFPKNQRRVFRAPDLKGMLEVFRELTDVRRYWVDVTVAPNNISCAVISEDKRQVSSPKPQIIYGTRYQTFVNFNYCTGILGSQSITSGKHYWEVDVSKKTAWILGVCAGFQPDAMCNIEKNENYQPKYGYWVIGLEEGVKCSAFQDSSFHTPSVPFIVPLSVIICPDRVGVFLDYEACTVSFFNITNHGFLIYKFSHCSFSQPVFPYLNPRKCGVPMTLCSPSS [human TRIM5α, 3-codon deletion at 331]” as the sequence, how does the enrichment read?
A: 0.559 ± 0.052

Q: “MASGILVNVKEEVTCPICLELLTQPLSLDCGHSFCQACLTANHKKSMLDKGESSCPVCRISYQPENIRPNRHVANIVEKLREVKLSPEGQKVDHCARHGEKLLLFCQEDGKVICWLCERSQEHRGHHTFLTEEVAREYQVKLQAALEMLRQKQQEAEELEADIREEKASWKTQIQYDKTNVLADFEQLRDILDWEESNELQNLEKEEEDILKSLTNSETEMVQQTQSLRELISDLEHRLQGSVMELLQGVDGVIKRTENVTLKKPETFPKNQRRVFRAPDLKGMLEVFRELTDVRRYWVDVTVAPNNISCAVISEDKRQVSSPKPQIIYGARGTYCTGILGSQSITSGKHYWEVDVSKKTAWILGVCAGFQPDAMCNIEKNENYQPKYGYWVIGLEEGVKCSAFQDSSFHTPSVPFIVPLSVIICPDRVGVFLDYEACTVSFFNITNHGFLIYKFSHCSFSQPVFPYLNPRKCGVPMTLCSPSS [human TRIM5α, 9-codon deletion at 335]” was tested. Which enrichment did it give?
A: 1.17 ± 0.42
